The campaign covered roughly 330,000 compounds. About 4,200 (1.3%) were called active. This list was built around the results that the source calls inconclusive (neither active nor inactive); the mix of calls is not that of the screen. Calls follow the shape of the dose curve; as a rule, active = well fitted activation curve with a large enough effect; inconclusive = small, poorly fitted or top-dose-only effect; inactive = no such curve, though single readings can be large or run the other way. Potencies of inconclusive entries are doubtful fits and often do not repeat.
test: qHTS screen for small molecules that induce genotoxicity in human embryonic kidney (HEK293T) cells expressing luciferase-tagged ELG1; conditions: HEK293T ELG1-luciferase reporter, luminescence, 16 h; series mostly up to 46 µM; also: nearly all actives have a fitted effect of over 60% in size
Outline: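 After overnight (16 hr) compound treatment at 37 °C, ELG1-luciferase HEK293T cells were lysed with ONE-Glo; luminescence quantified 30 min later at room temperature.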
Potency is read from the fitted curve at half-maximal effect; tags tell the direction and shape of the fitted curve.

Compound	Potency
Cc1cc(NC(=O)c2ccc3c(c2)OCO3)ccc1NC(=O)c1ccco1	inactive
O=C(NC(=S)Nc1ccccc1Br)c1ccco1	inconclusive: 23.1 µM [activator, partial curve]
O=C(Nc1ccc(N2CCCC2=O)cc1)c1cccc(F)c1	active: 2.91 µM
Cc1cc(NO)nc(-c2ccc(Br)cc2)n1	inconclusive: 18.4 µM [activator, single point]
O=C(Nc1ccc2c(c1)OCO2)c1cc(-c2ccccc2Cl)on1	active: 9.2 µM
O=C(NC1CCCC1)C1CC(c2ccc(F)cc2)=NO1 (stereo not given)	inconclusive: 23.1 µM [activator, partial curve, poor fit]
C/C(=N/NC(=O)OC(C)(C)C)c1ccco1	inconclusive: 16.4 µM [activator, partial curve, poor fit]
CCOc1ccc(N2C(=O)Cc3ccccc3C2=O)cc1	inconclusive: 16.4 µM [activator, partial curve, poor fit]
Cc1ccc(C(=O)C(NC(=O)c2ccco2)N2CCOCC2)cc1 (stereo not given)	active: 18.4 µM
CCc1nnc(NC(=O)c2ccc(COc3ccccc3Cl)o2)s1	inactive
COc1ccc(OCc2cc(C(=O)NC(C)c3cnn(C)c3)no2)c(Cl)c1 (stereo not given)	inconclusive: 16.4 µM [activator, partial curve]
O=C1OCCN1C(=O)[C@H]1[C@H](c2ccccc2)C(c2cccc(Cl)c2)=NN1c1ccccc1	inactive
COc1ccc2cc(C(N)=O)/c(=N\NC(=O)c3ccccc3)oc2c1	inconclusive: 4.11 µM [activator, single point]
O=c1c(-c2ccc(F)cc2)coc2c3c(ccc12)OCCO3	active: 2.59 µM
COc1cc2[nH]c(C(=O)N3CCc4ccccc43)cc2c(OC)c1OC	inconclusive: 20.6 µM [activator, partial curve, poor fit]
COC(=O)Cc1[nH]n(-c2nc3ccccc3s2)c(=O)c1C(C)=Nc1ccc(OC)cc1	inconclusive: 0.231 µM [activator, single point]
NC(=O)N/N=C/c1ccccc1OC(=O)c1cc2ccccc2oc1=O	inconclusive: 16.4 µM [activator, partial curve, poor fit]
Cc1ccc(OCCNC(=O)c2ccco2)cc1C	inconclusive: 20.6 µM [activator, partial curve, poor fit]
CC(C)C(=O)Nc1ccc(N2CCN(c3ccc(F)cc3)CC2)cc1	inactive
CCS(=O)CCSc1nc2ccccc2s1 (stereo not given)	inconclusive: 20.6 µM [activator, partial curve, poor fit]
Cc1ccc(CSc2nnc(-c3cccnc3)o2)cc1	inconclusive: 32.6 µM [activator, partial curve, poor fit]
CCOc1ccc(-c2csc(NC(=O)C3CCCO3)n2)cc1 (stereo not given)	inconclusive: 16.4 µM [activator, partial curve, poor fit]
CN(Cc1cccnc1)C(=O)c1cc(COc2ccc3ncccc3c2)on1	inactive
CC(C)n1c(=N)c(C(=O)NCCc2ccccc2)cc2c(=O)n3ccccc3nc21	inactive

Compound	Potency
CCN(CC)CCNC(=O)c1ccc(NC(=O)CC(NC(=O)c2ccccc2Cl)c2ccccc2)cc1 (stereo not given)	inconclusive: 20.6 µM [activator, partial curve, poor fit]
COc1ccc(-n2ncc3c(=O)n(CC(=O)Nc4ccc5c(c4)OCCO5)cnc32)cc1	inconclusive: 18.3 µM [activator, partial curve, poor fit]
COc1ccc(C(=O)NCCc2nnc3ccc(SCC(=O)N4CCCC4)nn23)cc1	inactive
O=C(CCS(=O)(=O)Cc1ccccc1)N1CCc2ccccc2C1	inactive
Brc1ccc(OCc2nc3ccccc3[nH]2)cc1	inconclusive: 2.59 µM [activator, full curve, poor fit]
O=C(Oc1c(Cl)cc(Cl)c2cccnc12)N1CCCCC1	inconclusive: 23.1 µM [activator, partial curve, poor fit]
Cc1ccc(-n2cc(-c3ccccc3)[nH]c2=O)cc1F	inconclusive: 6.51 µM [activator, partial curve, poor fit]
CC(C)(C)C(=O)Nc1ccc(-c2cc3cc(Cl)ccc3o2)cc1	inconclusive: 1.16 µM [activator, full curve]
O=C(Nc1ccccn1)c1csc2c1CCCC2	active: 7.3 µM
CCC(=O)Nc1cccc(NC(=S)NC(=O)c2cccc(C)c2)c1	inconclusive: 6.51 µM [activator, full curve, poor fit]
Cc1ccc(S(=O)(=O)N2[C@@H](c3ccc(Cl)cc3)C(C(=O)O)=C[C@H]2C(C)(C)C)cc1	inactive
CCOC(=O)c1cccc(NC(=O)c2cnccn2)c1	inconclusive: 20.6 µM [activator, partial curve]
Nc1ccc2oc(-c3ccccn3)nc2c1	inconclusive: 14.6 µM [activator, partial curve, poor fit]
CCCCc1ccc(Nc2ncnc3nc[nH]c23)cc1	active: 8.2 µM
CN(C)/C=C1\C(=O)N(c2ccc([N+](=O)[O-])cc2)N=C1c1ccccc1	active: 9.2 µM
CC1CCN(S(=O)(=O)c2nnc(NC(=O)c3cccc([N+](=O)[O-])c3)s2)CC1	inactive
CC(=O)N1CCc2cc(S(=O)(=O)NCCC(=O)Nc3ccc4c(c3)OCCO4)ccc21	inconclusive: 20.6 µM [activator, partial curve]
CCOC(=O)c1ccc(/[N+]([O-])=C/c2ccccc2)cc1	inconclusive: 25.9 µM [activator, partial curve, poor fit]
CCCCNC(=S)Nc1ccc2cn[nH]c2c1	inactive
O=C(O)c1ccc(NNC(=S)Nc2cc(C(F)(F)F)ccc2Cl)cc1	active: 18.3 µM
CC(C)Nc1oc(-c2cccc3ccccc23)nc1C#N	inconclusive: 4.61 µM [activator, single point]
COc1ccc(C(=O)NCC(=O)N/N=C/c2ccc([N+](=O)[O-])o2)cc1OC	inconclusive: 32.6 µM [activator, partial curve, poor fit]
Cn1c(SCC(=O)Nc2cc(Cl)cc(Cl)c2)nnc1-c1ccc2nonc2c1	inconclusive: 29.1 µM [activator, single point]
COc1ccc(CC(=O)Nc2nnc(SCC(=O)NCc3ccco3)s2)cc1OC	inactive

Compound	Potency
CC(C)=CC(=O)Nc1ccc(Br)cc1	active: 3.66 µM
CCC(C)c1ccc(-c2cc(C(=O)OCC(=O)Nc3cc(C)on3)c3ccccc3n2)cc1 (stereo not given)	active: 1.84 µM
CC1(C)CCc2cc(S(=O)(=O)N3CCN(S(=O)(=O)c4c(F)cccc4F)CC3)ccc2O1	inconclusive: 23.1 µM [activator, single point]
Cc1nc2ccccc2n1CC(=O)NCc1ccccc1	inconclusive: 29.1 µM [activator, single point]
O=C(COC(=O)/C=C/c1ccc([N+](=O)[O-])cc1)NCc1ccc2c(c1)OCO2	inactive
O=C(CNC(=O)c1cn2ccccc2n1)Nc1ccc(F)c(F)c1	active: 8.2 µM
Cn1c(=O)[nH]c(=O)c2c1nc(N/N=C/c1cccnc1)n2Cc1ccc(Cl)cc1	inconclusive: 13 µM [activator, partial curve]
COCCNC(=O)c1sc2nc(-c3ccccc3)cn2c1C	inconclusive: 13 µM [activator, partial curve, poor fit]
COc1ccc(-c2cc3c(=O)n(CC(=O)NCc4cccnc4)ncn3n2)cc1	inconclusive: 16.4 µM [activator, partial curve]
CN1CCN(CCCNC(=O)c2ccc(/C=C3\Oc4ccccc4N(Cc4ccccc4F)C3=O)cc2)CC1	inconclusive: 23.1 µM [activator, single point]
CNc1cnn(-c2ccc(C)cc2)c(=O)c1Cl	inconclusive: 8.2 µM [activator, partial curve]
Cn1c(C2=C(O)CN(Cc3ccccc3)C2=N)nc2ccccc21	inconclusive: 23.1 µM [activator, partial curve, poor fit]
O=[N+]([O-])c1cccc(S(=O)(=O)Nc2cccc(-c3ccc(N4CCCC4)nn3)c2)c1	inconclusive: 20.6 µM [activator, single point]
N/C(=N\OC(=O)CCC1CCCC1)c1ccncc1	inactive
CCNC(=O)c1cc2c(=O)n3cccc(C)c3nc2n(CCc2ccccc2)c1=N	inconclusive: 31.6 µM [activator, single point]
Cc1cc(C)c2cc(C(O)c3nnnn3Cc3ccccc3)c(=O)[nH]c2c1 (stereo not given)	inactive
Cn1c(N)c(C(=O)COC(=O)/C=C/c2ccc(Cl)c(Cl)c2)c(=O)n(C)c1=O	inactive
O=C(c1ccc(-c2ccccc2)cc1)C1CCCN(Cc2ccncc2)C1 (stereo not given)	inconclusive: 2.31 µM [activator, full curve, poor fit]
Nc1c(C(=O)OCC2CCCO2)c2nc3ccccc3nc2n1-c1ccc2c(c1)OCCO2 (stereo not given)	inconclusive: 16.4 µM [activator, partial curve]
Cc1cccc(C(=O)N[C@H](C(=O)Nc2ncc(C)s2)C(C)C)c1	inconclusive: 4.61 µM [activator, single point]
COc1ccc(-c2csc(Nc3ccc(S(N)(=O)=O)cc3)n2)cc1OC	inactive
O=C(Nc1nc2ccc(F)cc2s1)C1=COCCO1	inconclusive: 0.366 µM [activator, full curve]
